# This is one part of the list.
# System: PF3D7_0420300 AP2 domain 1 (GST-tagged)
# Test: gcPBM binding intensity (ln(normalized median fluorescence intensity)); higher = stronger DNA binding
# Summary of the method: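 The binding buffer was 1× PBS containing 1% milk, 0.2 mg/ml BSA, 0.5% salmon testes DNA and 0.03% Triton X-100. In it, GST-tagged P. falciparum DNA-binding domains expressed in E. coli were applied for 1 h to an Agilent 4 × 180k array of primer-extended double-stranded 36-bp intergenic genomic probes plus negative controls. Binding intensity, read with Alexa488 anti-GST antibody and a 488 nm scan, is the highest Masliner-normalised natural-log median intensity across replicate spots of either probe orientation.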
row,Sequence,gcPBM binding intensity (ln)
1,AAAAAAAAAAAAAGTACACACTTATAAAATATTATG [CACACA_site4639],9.4
2,TATTTTCAACATATTTGTACATATTTTATATTTTAA [XGTACX_site101],9.23
3,TATAATATAATTAAAAGTACTTAAAAAAGAATGAAA [XGTACX_site1157],9.25
4,TGTTTATATAATATTCTACACACCAACAACAAACAT [CACACA_site8087],9.74
5,TTTTTAAAACATATCACACATATATATATATATATA [CACACA_site5991],9.11
6,TATTTTTATAAAAATCGTACAAGTGATCCAATTTTT [XGTACX_site4402],9.05
7,CCGTATTCAAAAAGGAGTACACAATTATATGTTATA [XGTACX_site641],9.15
8,ATATGAGAGAATAAAACACACAAAAAAAAAAAAAAA [CACACA_site2865],9.22
9,TAATAATCAAGTTAACGTACAAAATCATCTATAGAA [XGTACX_site5921],9.39
10,TTATATAGGCAGATGGTGCATCTATTTATAAGCAAC,9.16
11,AAAAATTAAAAGAAAATACACACCTGTGGGTGCTTA [CACACA_site1988],9.13
12,TATTTTTTTTGTTAGGTGCATTTACATTTATTTTTA,9.49
13,TGTATGTATTTTCAATGTACATAAAAAAAAAAAAAA [XGTACX_site4397],8.78
14,AAAAAAAAAAGTTCTACACACACAAAAAAATATTTT [CACACA_site8725],9.92
15,AAATTAATACATTATTGTACTTTTCATGTGCAGAAA [XGTACX_site8284],9.03
16,TAATTCGCATTTTATACACACATTCGAACCTTTTTT [CACACA_site7549],9.76
17,CATATTACATTAAATTGTACATATATATATATATAT [XGTACX_site3295],9.2
18,CGGATGAATATATATGCACACATCTTTTGTAAAAAT [CACACA_site3190],9.27
19,TGTATAAATATATGCACACATATATATATTTATATA [CACACA_site3473],9.16

row,Sequence,gcPBM binding intensity (ln)
1,GAGAAAAAAAAAAAAAAACACACGGTACATTCAAAG [CACACA_site1767],9.52
2,TCAATAAATGAATATGCATGCACGCTCTTTAGAGAT [TGCATGCA_site553],9.23
3,AAAAAAAAAAAAAAATGTACATATATATAAATATAT [XGTACX_site6768],9.1
4,TATGTAATGTTTACAACACACAAATTATAAATACAA [CACACA_site1771],9.31
5,ATATATATATATATATGTACATATTTTTATTTATAC [XGTACX_site2858],9.12
6,TATTTATATGTATATACATGCACATATATATGAAAC [TGCATGCA_site1005],9.33
7,CTATTTTATATGTGCACACATATACTCAGACAAATA [CACACA_site4761],9.46
8,ACCTATATACTAAATGCACACTTATATATTTATATA [CACACA_site5371],9.58
9,AACATACACATATACACACACACATATATACCTATA [CACACA_site6643],10.4
10,AAGAAAAAAAAAATTACACACTGCGGACATACACAA [CACACA_site4838],9.72
11,TCAATTTTACTTGTTTGTACATAAAATAATAAGGTT [XGTACX_site3732],9.07
12,ATATTTTGTTTTTGTTCTTTTTTTTTCTTTTTTTTT [CACACA_negctrl_site1342],9.87
13,ACTTTGCTCTACAATGCATGCTCATTTAACAAGGCA [TGCATGCA_site676],9.04
14,ATATCTACTATACAACTGAGTGTAGAAAAATTAAAC [CACACA_negctrl_site1211],9.42
15,TATATTAAATGAAACAAACACACATAGCCTTTAAAT [CACACA_site1559],9.68
16,ATATTTATAAATTGCACACAAATAATAACATTCTAT [CACACA_site2357],9.44
17,TATTATTATTATGGTAGTACATGTAGGTTATTAAAA [XGTACX_site5742],9.26
18,AATTGGGAAGGACATGCATGAGAAATTAATATTGCA [TGCATGCA_site424],9.32
19,AAAAATAAATATATATGTACACATATGTATACAATA [XGTACX_site4692],9.28

row,Sequence,gcPBM binding intensity (ln)
1,GAAATAAATATAATATATATATATATATATATATGT [TGCATGCA_negctrl_site216],9.09
2,GGTATACACAGACATGCATGTAATTATATATAGGGA [TGCATGCA_site83],9.58
3,TTACAACATGAAAATGTGCACATATATATATATATA,9.25
4,TCGCCCTACAATTTGTTTATATATTAAATAAAATTT [CACACA_negctrl_site883],9.26
5,AATATATTTAATCATACACACATTTATGTACCTATA [CACACA_site1718],9.63
6,TGAAATTCCATAAAATGTACATATTAGTTTAATTCA [XGTACX_site4031],8.96
7,CATCATCTTTTAAAGGTGCATAATAATATTGTTAAT,9.06
8,GTCTATTATTTTTGAAGTACAAAAATTTTAGTTAAA [XGTACX_site4708],9.12
9,AAAGTAAAAAATCATAGTACACATTTAAATATATAT [XGTACX_site2323],9.56
10,TAATATATCAAATGAAGTACTCACATATACATAATA [XGTACX_site6051],9.3
11,GGTATATATTTATAATGTACATATTCATATATATAA [XGTACX_site3291],9.23
12,TTTTTTAAATTATGTAGTACGATTCATTTTTTATAA [XGTACX_site1101],8.98
13,AATATCTTAGTGGATACACACATATAAATGTGGATT [CACACA_site485],9.31
14,AAGATTTTCCTTGATAGTACACTTATGAAAATTTGT [XGTACX_site3047],9.11
15,ATATATTACGACTTCTGTACATAATATATAAAAGAA [XGTACX_site2353],9.24
16,TTTTTTTTTTTTTTTTTTTTTTTGTCTTATTTTTTT [GTGCAC_negctrl_site338],8.62
17,TGAATTAAGATTTATTGTACATAATTTATACCATAT [XGTACX_site7034],9.15
18,TAAATTTATAGACACACACACATATAAATAAATATA [CACACA_site6530],10
19,AATGTGCTCGCTATTACACACTCATTGGGATAAACT [CACACA_site7043],9.39

# — the supplement of paper PMC11417369
